According to patent US11572398B2, “GLP-1 derivatives and uses thereof” (Novo Nordisk A/S, priority 2014, dated 2023):
For at least one compound, name, drawing or mass did not settle the structure.

test system: lean Sprague Dawley male rats; assay: Pharmacodynamic study in rats: acute effect on food intake and body weight; type: in vivo; conditions: single s.c. dose 50 nmol/kg, change versus baseline

Row | Structure (SMILES) | % change in body weight 48 h [%] | % change in food intake 48 h [%]
1 | CC[C@H](C)[C@H](NC(=O)[C@H](Cc1ccccc1)NC(=O)[C@H](CCC(=O)O)NC(=O)[C@H](CCCNC(=N)N)NC(=O)[C@H](C)NC(=O)[C@H](C)NC(=O)[C@H](CCC(N)=O)NC(=O)[C@H](CCC(=O)O)NC(=O)[C@H](CCC(=O)O)NC(=O)[C@H](CC(C)C)NC(=O)[C@H](Cc1ccc(O)cc1)NC(=O)[C@H](CO)NC(=O)[C@H](CO)NC(=O)[C@@H](NC(=O)[C@H](CC(=O)O)NC(=O)[C@H](CO)NC(=O)[C@@H](NC(=O)[C@H](Cc1ccccc1)NC(=O)[C@@H](NC(=O)CNC(=O)[C@H](CCC(=O)O)NC(=O)C(C)(C)NC(=O)[C@@H](N)Cc1c[nH]cn1)[C@@H](C)O)[C@@H](C)O)C(C)C)C(=O)N[C@@H](C)C(=O)N[C@@H](Cc1c[nH]c2ccccc12)C(=O)N[C@@H](CC(C)C)C(=O)N[C@H](C(=O)N[C@@H](CCCNC(=N)N)C(=O)NCC(=O)N[C@@H](CCCNC(=N)N)C(=O)N[C@@H](CCCCNC(=O)COCCOCCNC(=O)COCCOCCNC(=O)CN(CCCNC(=O)COCCOCCNC(=O)COCCOCCNC(=O)COCCOCCNC(=O)COCCOCCNC(=O)CC[C@H](NC(=O)[C@H]1CC[C@H](CNC(=O)CCCCCCCCCCCCCCCCCCC(=O)O)CC1)C(=O)O)CCCNC(=O)COCCOCCNC(=O)COCCOCCNC(=O)COCCOCCNC(=O)COCCOCCNC(=O)CC[C@H](NC(=O)[C@H]1CC[C@H](CNC(=O)CCCCCCCCCCCCCCCCCCC(=O)O)CC1)C(=O)O)C(=O)O)C(C)C [Example 11] | −7 | −57
2 | CC[C@H](C)[C@H](NC(=O)[C@H](Cc1ccccc1)NC(=O)[C@H](CCC(=O)O)NC(=O)[C@H](CCCNC(=N)N)NC(=O)[C@H](C)NC(=O)[C@H](C)NC(=O)[C@H](CCC(N)=O)NC(=O)[C@H](CCC(=O)O)NC(=O)[C@H](CCC(=O)O)NC(=O)[C@H](CC(C)C)NC(=O)[C@H](Cc1ccc(O)cc1)NC(=O)[C@H](CO)NC(=O)[C@H](CO)NC(=O)[C@@H](NC(=O)[C@H](CC(=O)O)NC(=O)[C@H](CO)NC(=O)[C@@H](NC(=O)[C@H](Cc1ccccc1)NC(=O)[C@@H](NC(=O)CNC(=O)[C@H](CCC(=O)O)NC(=O)C(C)(C)NC(=O)[C@@H](N)Cc1c[nH]cn1)[C@@H](C)O)[C@@H](C)O)C(C)C)C(=O)N[C@@H](C)C(=O)N[C@@H](Cc1c[nH]c2ccccc12)C(=O)N[C@@H](CC(C)C)C(=O)N[C@H](C(=O)N[C@@H](CCCNC(=N)N)C(=O)NCC(=O)N[C@@H](CCCNC(=N)N)C(=O)N[C@@H](CCCCNC(=O)COCCOCCNC(=O)COCCOCCNC(=O)COCCOCCNC(=O)COCCOCCNC(=O)CN(CCCNC(=O)COCCOCCNC(=O)COCCOCCNC(=O)CC[C@H](NC(=O)[C@H]1CC[C@H](CNC(=O)CCCCCCCCCCCCCCCCCCC(=O)O)CC1)C(=O)O)CCCNC(=O)COCCOCCNC(=O)COCCOCCNC(=O)CC[C@H](NC(=O)[C@H]1CC[C@H](CNC(=O)CCCCCCCCCCCCCCCCCCC(=O)O)CC1)C(=O)O)C(=O)O)C(C)C [Example 12] | −7 | −53
3 | CC[C@H](C)[C@H](NC(=O)[C@H](Cc1ccccc1)NC(=O)[C@H](CCC(=O)O)NC(=O)[C@H](CCCNC(=N)N)NC(=O)[C@H](C)NC(=O)[C@H](C)NC(=O)[C@H](CCC(N)=O)NC(=O)[C@H](CCC(=O)O)NC(=O)[C@H](CCC(=O)O)NC(=O)[C@H](CC(C)C)NC(=O)[C@H](Cc1ccc(O)cc1)NC(=O)[C@H](CO)NC(=O)[C@H](CO)NC(=O)[C@@H](NC(=O)[C@H](CC(=O)O)NC(=O)[C@H](CO)NC(=O)[C@@H](NC(=O)[C@H](Cc1ccccc1)NC(=O)[C@@H](NC(=O)CNC(=O)[C@H](CCC(=O)O)NC(=O)C(C)(C)NC(=O)[C@@H](N)Cc1c[nH]cn1)[C@@H](C)O)[C@@H](C)O)C(C)C)C(=O)N[C@@H](C)C(=O)N[C@@H](Cc1c[nH]c2ccccc12)C(=O)N[C@@H](CC(C)C)C(=O)N[C@H](C(=O)N[C@@H](CCCNC(=N)N)C(=O)NCC(=O)N[C@@H](CCCNC(=N)N)C(=O)N[C@@H](CCCCNC(=O)COCCOCCNC(=O)COCCOCCNC(=O)COCCOCCNC(=O)COCCOCCNC(=O)COCCOCCNC(=O)COCCOCCNC(=O)CN(CCCNC(=O)CC[C@H](NC(=O)[C@H]1CC[C@H](CNC(=O)CCCCCCCCCCCCCCCCCCC(=O)O)CC1)C(=O)O)CCCNC(=O)CC[C@H](NC(=O)[C@H]1CC[C@H](CNC(=O)CCCCCCCCCCCCCCCCCCC(=O)O)CC1)C(=O)O)C(=O)O)C(C)C [Example 13] | −3 | −27
4 | CC[C@H](C)[C@H](NC(=O)[C@H](Cc1ccccc1)NC(=O)[C@H](CCC(=O)O)NC(=O)[C@H](CCCNC(=N)N)NC(=O)[C@H](C)NC(=O)[C@H](C)NC(=O)[C@H](CCC(N)=O)NC(=O)[C@H](CCC(=O)O)NC(=O)[C@H](CCC(=O)O)NC(=O)[C@H](CC(C)C)NC(=O)[C@H](Cc1ccc(O)cc1)NC(=O)[C@H](CO)NC(=O)[C@H](CO)NC(=O)[C@@H](NC(=O)[C@H](CC(=O)O)NC(=O)[C@H](CO)NC(=O)[C@@H](NC(=O)[C@H](Cc1ccccc1)NC(=O)[C@@H](NC(=O)CNC(=O)[C@H](CCC(=O)O)NC(=O)C(C)(C)NC(=O)[C@@H](N)Cc1c[nH]cn1)[C@@H](C)O)[C@@H](C)O)C(C)C)C(=O)N[C@@H](C)C(=O)N[C@@H](Cc1c[nH]c2ccccc12)C(=O)N[C@@H](CC(C)C)C(=O)N[C@H](C(=O)N[C@@H](CCCNC(=N)N)C(=O)NCC(=O)N[C@@H](CCCNC(=N)N)C(=O)N[C@@H](CCCCNC(=O)COCCOCCNC(=O)COCCOCCNC(=O)COCCOCCNC(=O)COCCOCCNC(=O)COCCOCCNC(=O)COCCOCCNC(=O)CN(CCCNC(=O)[C@H](CO)NC(=O)CC[C@H](NC(=O)[C@H]1CC[C@H](CNC(=O)CCCCCCCCCCCCCCCCCCC(=O)O)CC1)C(=O)O)CCCNC(=O)[C@H](CO)NC(=O)CC[C@H](NC(=O)[C@H]1CC[C@H](CNC(=O)CCCCCCCCCCCCCCCCCCC(=O)O)CC1)C(=O)O)C(=O)O)C(C)C [Example 25] | −7 | −29
